Where “and” joins values, the source holds several entries; their conditions need not be identical. Equal entries are not always repeated.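 The compound was tested at five concentrations on cells cultured in 96-well plates, with a 48-hour exposure period. At the GI50, growth is halved. TGI: concentration producing complete growth inhibition.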
Tested on: NCI-H322M lung
Assay: NCI-60 cell line screen, 48 h

| SMILES | TGI [µM] | GI50 |
| --- | --- | --- |
| O=C1c2ccccc2C(=O)c2c(O)c(O)cc(O)c21 | > 100 | – |
| COC(=O)Nc1nc2ccc(Oc3ccc(NC(=O)Nc4cccc(Cl)c4)cc3)cc2[nH]1 | > 22.5 | 1.83 µM |
| CCCCCCCCCCCCNC1(C)CNCCCNCCNCCCNC1 | 3.32 | – |
| CCOC(=O)/C(=C\NC(C)(C)C)c1nc2ccccc2o1 | > 100 | – |
| COc1cc(C(=O)n2nc(N3CCN(C)CC3)c3cc(N)ccc32)cc(OC)c1OC | > 100 | 3.7 µM |
| O=C1c2cccnc2C(=O)c2c1nc1ccccc1c2-c1cncc(-c2c3c(nc4ccccc24)C(=O)c2cccnc2C3=O)c1 | 1.02 | – |
| CN1CCN(C(=S)N(C)C(=O)c2cccs2)CC1 | > 100 | – |
| CCCC(=O)NNc1[nH]c(-c2ccc(OC)cc2)cc1C(=O)OCC | > 100 | 44.5 µM |
| COC(=O)[C@]12CSC[C@H]1C[C@H](c1ccc(N(C)C)cc1)N2 | > 100 | – |
| CN(C)CCN1C(=O)c2ccccc2C1(O)c1ccc(Cl)cc1 (stereo not drawn) | > 100 | – |
| O=C(NN1C(=O)c2ccccc2C1=O)c1ccccc1Nc1ccccc1C(=O)NN1C(=O)c2ccccc2C1=O | > 100 | – |
| Cc1ccc(S(=O)(=O)N/N=C(\C(=O)Nc2cccc([N+](=O)[O-])c2)c2nc3ccc([N+](=O)[O-])cc3[nH]c2=O)cc1 | > 100 | – |
| COc1ccc(Nc2ccnc(NCCCNc3ccnc4cc(Cl)ccc34)n2)cc1 | 3.71 | 1.19 µM |
| O=C(/C=C/c1cccs1)c1ccc(C(=O)/C=C/c2cccs2)cc1 | > 100 | – |
| CC(CCC(=O)O)[C@H]1CCC2[C@H]3C(CC(=O)[C@@]21C)[C@@]1(C)CCC(O)C[C@H]1C[C@@H]3O (stereo partly drawn) | > 100 | – |
| CCn1c(=O)c2c3ccc(O)cc3oc2c2ccc(O)cc21 | > 100 | – |
| CN1CCN(Cc2ccc(Nc3ncc(Cl)c(Nc4ccccc4S(=O)(=O)N(C)C)n3)cc2)CC1 | 0.59 | 0.0955 µM |
| COC(=O)[C@@H](C)C[C@H](Cc1ccccc1)NC(=O)c1csc([C@@H](C[C@H](C(C)C)N(C)C(=O)[C@@H](NC(=O)[C@H]2CCCCN2C)C(C)C)OC(C)=O)n1 | > 25 | 0.000454 µM and 0.0025 µM |
| C/C1=C\CC[C@@]2(C)O[C@@H]2[C@H]2OC(=O)C(C)C2C[C@H]1O (stereo partly drawn) | > 100 | – |
| COc1cc(-c2nc3ccccc3s2)ccc1OCc1nc2n(n1)S(=O)(=O)c1ccccc1N2C | > 100 | > 100 µM |
| C=CC(c1ccccc1)C1(O)c2cccc(O)c2C(=O)c2c(O)cccc21 (stereo not drawn) | 41.6 | – |
| CC(C)(O)[C@H]1[C@@H]2OC(=O)[C@H]1[C@]1(O)C[C@H]3OC34C(=O)O[C@H]2[C@@]41C (stereo partly drawn) (tested in a mixture with another compound) | > 100 | – |
| C/C(=C/CNc1ncnc2c1ncn2CCC#N)CO | > 100 | – |

| SMILES | TGI [µM] | GI50 |
| --- | --- | --- |
| COc1cc2c3c(c4cc(OC)c(OC)cc4c2cc1OC)[C@H](O)[C@@H]1CCCN1C3 | 1.04 | – |
| Cn1cnc2c(NCc3ccccc3)nc(NCCO)nc21 | 410 | 99.2 µM |
| COc1ccc(C(=O)N2CCN(c3ccc4[nH]c(=O)oc4c3)CC2)cc1 | > 100 | – |
| COc1ccc(CCN(C)C(=O)CC(C#N)(c2ccccc2)c2ccc(OC)c(OC)c2)cc1OC (stereo not drawn) | > 100 | – |
| CC(=O)Nc1ccc(/C=C/C(=O)c2sc(C(N)=S)nc2C)cc1 | > 100 | – |
| CO[C@H](C(=O)N[C@@H](CCCCNC(=O)OCc1ccccc1)C(=O)OC(C)(C)C)[C@@H]1Cc2cc3cc(OC4CC(OC5CC(O)C(O)C(C)O5)C(O)C(C)O4)c(C)c(O)c3c(O)c2C(=O)[C@H]1OC1CC(OC2CC(OC3CC(C)(O)C(O)C(C)O3)C(O)C(C)O2)C(O)C(C)O1 (stereo partly drawn) | 4.91 | 0.58 µM |
| NC(=O)NC(=O)c1ccc(NC(=O)CBr)cc1 | 19.7 | – |
| CSc1sc(=S)sc1SC | > 100 | – |
| COc1ccc2c(c1)Cc1c-2c(NN)nc2ccccc12 | > 100 | 38 µM |
| Clc1ccc2nc(CCSCCc3nc4ccc(Cl)cc4[nH]3)[nH]c2c1 | 5.21 | – |
| N#CC1=C(N2CCOCC2)CCC1 | > 100 | – |
| CCOC(=O)c1c(-c2ccccc2)[nH]c2ccc(Cl)cc2c1=O | > 100 | – |
| COC(=O)c1c2c(c(C)[n+]([O-])c1C)C(=O)C(NCc1ccc(F)c(F)c1)=CC2=O | 6.59 | 2.07 µM |
| CN(CCO)c1nc2c(c(=O)[nH]1)CNCC2 | > 100 | – |
| CCOC(=O)c1cc2ncccc2c2ccccc12 | > 100 | – |
| ON(CCc1ccccn1)Cc1ccccc1 | > 100 | – |
| CCOn1cc(C2=C(c3c[nH]c4ccccc34)C(=O)NC2=O)c2ccccc21 | 3.99 | 0.258 µM |
| O=C(CC1(O)C(=O)Nc2c(Cl)cc(Cl)cc21)c1ccc2ccccc2c1 (stereo not drawn) | 26.2 | – |
| CCC(=C(c1ccc(OCc2ccccc2)cc1)c1ccc(OCc2ccccc2)cc1)c1ccc(OC)cc1 | > 100 | – |
| Cc1ccnc2nc3[nH]c4ccccc4c3cc12 | > 100 | – |
| CCOC(=O)c1c(NC(=O)c2ccc(OC)cc2)sc2c1CCCC2 | > 100 | – |
| O=C1NC(Cc2c[nH]c3ccccc23)C(=O)N2C(c3ccccc3)c3[nH]c4ccccc4c3C[C@@H]12 (stereo partly drawn) | 81.6 | – |
| Cc1cc2nc3c(C#N)c(-c4ccccc4)cc(Nc4ccc(F)cc4)n3c2cc1C | > 100 | – |

Reference: PubChem BioAssay (NCI)
